Molecular target: T1, Human NOP Rluc-tagged fusion protein (N/OFQ peptide receptor fused to Renilla luciferase) (human)
T1 construct: N/OFQ peptide (NOP) receptor, human; Two cell lines: one co-expressing Gβ1-RGFP, one co-expressing β-arrestin 2-RGFP; also called RLuc/NOP receptor; NOP receptor; source: HEK293, permanently expressed by retroviral vector (pQIXN); in whole cells or in enriched plasma membranes; not shown: RLuc (Renilla luciferase), C-terminal, kept
Assay: FRET or BRET; BRET between NOP-RLuc and β-arrestin 2-RGFP in whole co-expressing HEK293 cells (100,000 cells/well), DPBS with 0.5 mM MgCl2 and 0.9 mM CaCl2, coelenterazine 5 μM, agonist added 5 min before reading, room temperature; also after PTX 10 ng 20 h (negligible effect)
Conditions: partners not purified

B1: Human β-arrestin 2 tethered to the C terminus of RGFP (natural protein)
chain: not shown
notes: β-arrestin 2, human; start codon removed, N terminus tethered to the C terminus of RGFP through a 13-mer linker; also called β-arrestin 2-RGFP; β-arrestin 2/RGFP; source: HEK293, permanently expressed by retroviral vector (pQIXH); in whole cells; not shown: RGFP (Renilla green fluorescent protein), N-terminal, kept
stimulated BRET ratio over the baseline at the maximal effect of N/OFQ: 0.07 BRET ratio units

Reference: publication PMC4527783 (PLoS ONE, 2015)
